These results are taken from the antibiotic and cytotoxicity screens of Wong et al. (2023).

Some of the results follow.

One experiment deals with HSkMC. In words: cytotoxicity call (relative viability < 0.9). To be noted: 10 µM.
The test system of the next experiment is S. aureus RN4220. Briefly: growth inhibition call (relative growth <= 0.2). To be noted: 50 µM.

As for `C[C@@H]1CN([C@@H](C)CO)C(=O)CCCn2cc(nn2)CO[C@@H]1CN(C)S(=O)(=O)c1cn(C)cn1`, the cytotoxicity call in the experiment with HSkMC was “inactive”. Moreover, the growth inhibition call in the experiment with S. aureus RN4220 is “inactive”.
For `O=C(CCCCCNC(=O)OCc1ccc(CO[C@@H]2C[C@H](C3CCCCC3)C=C(C(=O)N3CCN(Cc4ccccc4)CC3)O2)cc1)NO`, in the experiment on HSkMC, the cytotoxicity call is “inactive”. Further, in the experiment with S. aureus RN4220, the growth inhibition call was “inactive”.
Turning to `C[C@H]1CN([C@@H](C)CO)C(=O)Cc2cc(NC(=O)Cn3cnnn3)ccc2O[C@H]1CN(C)CC1CC1`, in the experiment with HSkMC, the cytotoxicity call was “inactive”. Besides, the growth inhibition call in the experiment on S. aureus RN4220 was “inactive”.
As to `O=C(C[C@@H]1C[C@@H]2c3cc(NC(=O)Cc4ccncc4)ccc3O[C@@H]2[C@H](CO)O1)NCc1cccc(F)c1`, the cytotoxicity call in the experiment with HSkMC was “inactive”. In addition, the growth inhibition call in the experiment on S. aureus RN4220 was “inactive”.
In the case of `Cc1noc(C)c1NC(=O)N(C)C[C@H]1Oc2c(NS(C)(=O)=O)cccc2C(=O)N([C@@H](C)CO)C[C@H]1C`, the cytotoxicity call in the experiment with HSkMC is “inactive”. Further, the growth inhibition call in the experiment with S. aureus RN4220 is “inactive”.
Turning to `CC1=CC2(CO)C(=O)[C@]3(CO3)C1[C@H]1[C@]2(C)C=C(CO)C(=O)[C@]12CO2` (stereo not given in full), the cytotoxicity call in the experiment on HSkMC was “inactive”. In the experiment on S. aureus RN4220, the growth inhibition call is “inactive”.
On to `C[C@H]1CN([C@@H](C)CO)C(=O)c2cc(C#CCN(C)C)cnc2O[C@@H]1CN(C)C(=O)Nc1cc(F)ccc1F`, for which, in the experiment on HSkMC (human skeletal muscle cells), the cytotoxicity call was “inactive”. Moreover, the growth inhibition call in the experiment on S. aureus RN4220 is “inactive”.
With `O=C(C[C@@H]1C=C[C@@H](NC(=O)C2CC2)[C@H](CO)O1)NCCCN1CCOCC1`, the cytotoxicity call with HSkMC was “inactive”. The growth inhibition call in the experiment on S. aureus RN4220 was “inactive”.
Consider `C[C@H](CO)N1C[C@H](C)[C@H](CN(C)C(=O)Nc2ccccc2)Oc2ccc(NC(=O)CCN3CCOCC3)cc2CC1=O`, for which, in the experiment with HSkMC, the cytotoxicity call is “inactive”. Further, the growth inhibition call with S. aureus RN4220 is “inactive”.
Turning to `C[C@H]1CCCCO[C@H](CN(C)C(=O)CCC(F)(F)F)[C@@H](C)CN([C@@H](C)CO)C(=O)c2cc(NS(=O)(=O)c3ccccc3)ccc2O1`, the cytotoxicity call with HSkMC was “inactive”. The growth inhibition call in the experiment on S. aureus RN4220 is “inactive”.
